Results published in PMC6894885.
No constants are given. Whether binding was seen depends on the method and setting. Binding seen in cells or lysates may run through a third protein. Some results given as binding are weak or reduced against the parent protein; the word gives no strength.

Chains of the proteins cited; added tags and fusions are not shown. Lines headed by an entry give the natural chain unless they say otherwise; changes in a name come on top. A line that says so, or that is headed by a name, gives the form on record, which may keep a tag or linker. Residues count along the entry.
UniProt F5HCV3: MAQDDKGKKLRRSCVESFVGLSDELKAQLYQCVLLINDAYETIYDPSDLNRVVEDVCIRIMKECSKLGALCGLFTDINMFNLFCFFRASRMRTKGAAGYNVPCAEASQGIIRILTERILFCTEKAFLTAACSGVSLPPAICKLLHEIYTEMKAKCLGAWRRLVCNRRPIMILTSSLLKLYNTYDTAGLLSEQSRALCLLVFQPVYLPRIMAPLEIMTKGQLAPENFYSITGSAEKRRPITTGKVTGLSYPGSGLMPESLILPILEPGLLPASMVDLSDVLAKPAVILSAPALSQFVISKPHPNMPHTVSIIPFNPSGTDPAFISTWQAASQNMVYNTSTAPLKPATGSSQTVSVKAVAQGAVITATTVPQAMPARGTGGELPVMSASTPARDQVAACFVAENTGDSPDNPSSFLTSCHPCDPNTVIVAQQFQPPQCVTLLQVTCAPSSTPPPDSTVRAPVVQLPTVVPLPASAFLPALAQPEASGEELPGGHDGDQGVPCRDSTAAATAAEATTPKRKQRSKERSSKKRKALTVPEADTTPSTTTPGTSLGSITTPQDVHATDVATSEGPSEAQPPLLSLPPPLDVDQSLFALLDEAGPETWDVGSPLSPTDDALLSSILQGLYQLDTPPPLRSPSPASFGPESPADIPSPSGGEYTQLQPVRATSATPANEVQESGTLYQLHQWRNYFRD
Flag-tagged RTA truncation C544-691 (Kaposi's sarcoma-associated herpesvirus (KSHV)): residues 544-691 of F5HCV3
UniProt Q15596: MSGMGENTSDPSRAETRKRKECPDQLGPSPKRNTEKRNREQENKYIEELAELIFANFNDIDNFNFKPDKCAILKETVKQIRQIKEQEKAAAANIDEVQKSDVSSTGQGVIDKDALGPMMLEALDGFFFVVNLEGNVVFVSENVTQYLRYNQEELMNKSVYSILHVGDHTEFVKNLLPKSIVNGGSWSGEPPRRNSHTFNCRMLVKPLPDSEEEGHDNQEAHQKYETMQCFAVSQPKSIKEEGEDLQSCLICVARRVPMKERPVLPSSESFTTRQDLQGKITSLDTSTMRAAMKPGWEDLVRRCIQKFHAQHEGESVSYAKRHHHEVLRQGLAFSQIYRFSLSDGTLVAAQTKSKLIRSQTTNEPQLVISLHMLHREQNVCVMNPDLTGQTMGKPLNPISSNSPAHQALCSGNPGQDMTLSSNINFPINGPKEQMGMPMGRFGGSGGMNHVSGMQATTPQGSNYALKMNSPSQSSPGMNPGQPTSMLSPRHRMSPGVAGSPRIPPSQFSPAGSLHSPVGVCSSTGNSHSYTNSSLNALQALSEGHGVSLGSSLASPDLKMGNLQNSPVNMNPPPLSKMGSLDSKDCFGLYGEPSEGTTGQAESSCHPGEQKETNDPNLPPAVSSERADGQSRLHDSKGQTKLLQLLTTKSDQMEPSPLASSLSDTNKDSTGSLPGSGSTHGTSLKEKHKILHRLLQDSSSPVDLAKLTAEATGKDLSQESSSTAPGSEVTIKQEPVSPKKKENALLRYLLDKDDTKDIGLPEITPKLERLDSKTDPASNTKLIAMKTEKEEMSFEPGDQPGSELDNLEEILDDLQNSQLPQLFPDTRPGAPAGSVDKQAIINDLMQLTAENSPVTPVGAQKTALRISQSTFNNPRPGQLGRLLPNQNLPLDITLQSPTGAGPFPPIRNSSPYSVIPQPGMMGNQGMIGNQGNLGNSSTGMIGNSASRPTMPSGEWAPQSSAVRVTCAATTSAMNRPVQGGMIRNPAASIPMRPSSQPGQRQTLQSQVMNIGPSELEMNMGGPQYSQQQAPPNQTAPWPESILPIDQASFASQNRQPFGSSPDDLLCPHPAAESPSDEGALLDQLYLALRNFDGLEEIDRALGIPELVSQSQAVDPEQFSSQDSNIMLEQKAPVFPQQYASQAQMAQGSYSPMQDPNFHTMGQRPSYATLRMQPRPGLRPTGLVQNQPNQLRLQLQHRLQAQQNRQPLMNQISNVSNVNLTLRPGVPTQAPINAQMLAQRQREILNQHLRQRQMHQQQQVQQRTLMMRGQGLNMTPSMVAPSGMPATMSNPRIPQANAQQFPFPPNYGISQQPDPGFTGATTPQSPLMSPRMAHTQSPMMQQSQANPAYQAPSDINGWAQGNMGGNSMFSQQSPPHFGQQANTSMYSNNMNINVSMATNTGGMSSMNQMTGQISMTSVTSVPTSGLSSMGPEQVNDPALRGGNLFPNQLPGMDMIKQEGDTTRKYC
Flag-tagged NCOA2 truncation N624: residues 1-624 of Q15596
Flag-tagged NCOA2 truncation 624C: residues 624-1464 of Q15596

Assays:
Test in all cases: co-IP
[1] = target: Flag-tagged replication and transcription activator (RTA), full length (Kaposi's sarcoma-associated herpesvirus (KSHV)) (UniProt F5HCV3)
[2] = target: Flag-tagged RTA truncation C544-691 (Kaposi's sarcoma-associated herpesvirus (KSHV)) (UniProt F5HCV3)
[3] = target: Flag-tagged NCOA2 truncation 624C (human) (UniProt Q15596)
[4] = target: Flag-tagged NCOA2 truncation N624 (human) (UniProt Q15596)

“Myc-tagged NCOA2 truncation 624C (from UniProt Q15596 624-1464) (domain or fragment)” was tested, and the binding [1] was “no binding”.
In the case of “Myc-tagged NCOA2 truncation N624 (from UniProt Q15596 1-624) (domain or fragment)”, the binding [1] was “binds”.
With “HA-tagged NCOA2, full length (from UniProt Q15596 1-1464)” the binding [2] was “binds” and the binding [1] was “binds”.
“Myc-tagged NCOA2 (from UniProt Q15596 1-1464)” was tested, and the binding [1] was “binds”.
In the case of “HA-tagged RTA, full length (from UniProt F5HCV3 1-691)”, the binding [3] was “no binding” and the binding [4] was “binds”.
